# Experimental data reported in PubChem BioAssay AID743279 (National Center for Advancing Translational Sciences (NCATS), 2014).
# The campaign covered roughly 360,000 compounds. About 17,000 (4.7%) were called active. This list was built around the results that the source calls inconclusive (neither active nor inactive); the mix of calls is not that of the screen. Cut-off read from the data, not from the text of the source: active = activity change below about -50%; inconclusive = mostly about -30% to -49%; inactive = weaker than that.
# Assay: qHTS for Inhibitors of Inflammasome Signaling: IL-1-beta AlphaLISA Primary Screen
# Details: THP-1 LPS/ATP IL-1B secretion, 16 h; at 57.5 µM, active compounds read low
# How it was run: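 THP-1 cells pretreated 1 hr with compounds (up to 57.5 uM final), then stimulated with LPS (250 ng/mL final) plus ATP (1.25 mM final); secreted IL-1B measured by AlphaLISA after 16 hr, decreased signal indicating inhibition.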
# % is set by controls: 0 for no effect and ±100 for the full control effect.
row,SMILES,activity change
1,COc1ccc(/C=C/C(=O)NC(=S)Nc2ccc(S(=O)(=O)N=C(N)N)cc2)cc1OC,inactive: -2.41%
2,CN1C(=O)/C(=C/c2ccccc2Cl)Sc2ccc(C(=O)NCc3cccnc3)cc21,active: -68.5%
3,CSc1cccc(NC(=S)N(CCCN2CCCC2)Cc2cccs2)c1,inconclusive: -47.9%
4,CCN(C(=O)c1ccccc1)c1ccc([N+](=O)[O-])cc1,inconclusive: -37.4%
5,CCc1nc2ccc(C(=O)NCC3CCCCC3)cn2c1N(C)Cc1ccc(OC)cc1,inconclusive: -41.3%
6,CCOCCSc1n[nH]c(=O)n1CCc1ccccc1,inactive: 13%
7,C[C@@H]1CN([C@@H](C)CO)C(=O)c2ccccc2-c2ccccc2CO[C@@H]1CN(C)S(=O)(=O)c1ccc(C(F)(F)F)cc1,inconclusive: -34%
8,CCCCC1=NN(C(=O)c2cocc2C)C(O)(C(F)(F)F)C1 (configuration not stated),inactive: -14.4%
9,CC(C)c1cc(C(=O)NNC(=S)NC2CCCCC2)cs1,inactive: -9.16%
10,C=CCOc1ccccc1CNCc1ccc(F)cc1,inconclusive: -34.1%
11,O=C(CCN1C(=O)c2ccccc2S1(=O)=O)N1CCN(c2ccc(F)cc2)CC1,inactive: 18.3%
12,Nc1ncccc1OCc1ccc(Cl)c(Cl)c1,inconclusive: -40.3%
13,COc1ccccc1N1CCN(C2CCCN(C(=O)c3cccc(-c4ccco4)c3)C2)CC1 (configuration not stated),inconclusive: -37.1%
14,Cc1cccc(NS(=O)(=O)c2cc(C(=O)N3CCc4ccccc4C3)ccc2Cl)c1C,inconclusive: -35.4%
15,Cc1ccc2c(c1)[C@H]1[C@H](CO2)[C@H](c2ccccc2)[C@]2(C)C(=O)Nc3ccccc3C(=O)N12,active: -60.2%
16,C=CCOc1ccc2nnc(C)n2n1,inconclusive: -44.6%
17,Cc1cc(C)nc(Nc2nc(C(N)c3ccccc3)cs2)n1 (configuration not stated),inconclusive: -32.7%
18,Cc1cc(C)c(C2C(C#N)=C(N)Oc3n[nH]c(C)c32)cc1CN1CCCC1 (configuration not stated),inactive: -30%
19,S=C(NCc1ccccc1)Nc1cccc(Cl)c1,inconclusive: -32.8%
20,CCOC(=O)CSc1nc(N)c(C(=O)Nc2ccc(N(C)C)cc2)s1,inconclusive: -40.3%
21,CN(C(=O)COC(=O)/C=C/c1ccc2ccccc2n1)C1CCS(=O)(=O)C1 (configuration not stated),active: -106%
22,O=C(NC1CCCCC1)c1nc(C2CCNCC2)oc1-c1ccccc1,active: -66.2%
23,O=C(C1=C[C@H](c2csc3ccccc23)C[C@H](OCc2ccc(CO)cc2)O1)N1CCN(Cc2ccc3c(c2)OCO3)CC1,inconclusive: -47.3%
24,C=CCN(c1ccccc1OC)S(=O)(=O)c1cccc(C(=O)NCC(c2ccc(OC)cc2)N2CCCC2)c1 (configuration not stated),inconclusive: -44.1%
25,CN(C)CCNc1ccc2nnn3c4ccc(O)cc4c(=O)c1c23,active: -53.2%
26,COc1ccc(N(CC(=O)NC2CCCCC2)C(=O)c2ccc(C)s2)c(OC)c1,inconclusive: -32.9%

row,SMILES,activity change
1,CCOC(=O)c1c(Nc2ccccc2OCCOC)n[nH]c1C,inconclusive: -33.3%
2,CC(C)c1ccccc1-n1c(SCc2cc(=O)oc3ccc4ccccc4c23)nnc1-c1cccnc1,active: -50.8%
3,CCC(C)NC(=O)c1cn(CC)c2ccc(S(=O)(=O)N3CCCCCC3)cc2c1=O (configuration not stated),inconclusive: -40.9%
4,Cc1ccc(NC(=O)c2cccc3c2C(=O)N(C2CCCCC2)C3)cc1,inconclusive: -33.7%
5,CCN(CC)C(=O)[C@H]1CC(CC(=O)NCCC2=CCCCC2)C(=O)N2CCc3c([nH]c4ccc(OC)cc34)[C@]12C (some centres not stated),inconclusive: -48.1%
6,Cc1ccc(S(=O)(=O)N2CCN(C(=O)c3c(C)nn(-c4ccccc4)c3Cl)CC2)cc1,active: -53.8%
7,CCCN(CCC)Cc1c(C(=O)N/N=C/c2ccc(Br)cc2)nnn1-c1nonc1N,inconclusive: -48%
8,NC(=O)C1CCN(C(=O)c2ccc(Oc3cc(Cl)cc(Cl)c3)o2)CC1,inconclusive: -46.9%
9,COc1ccc(-c2nc(CN3CCN(c4ncnc5ccccc45)CC3)c(C)o2)c(OC)c1,inconclusive: -48.3%
10,O=C(CCC(=O)N1CCOc2ccccc21)NCCN1CCOCC1,inactive: 17%
11,C[C@@]12C(=O)N(c3cccc(Cl)c3)C(=O)N1[C@H](c1ccc(Cl)cc1)[C@@H]1C(=O)N(C3CCCCC3)C(=O)[C@@H]12,inconclusive: -43.3%
12,CC(=O)N1N=C(c2c(-c3ccccc3)c3cc(C)ccc3[nH]c2=O)CC1c1ccco1 (configuration not stated),inconclusive: -36.1%
13,CSCCC(NC(=O)c1ccc(Cl)c([N+](=O)[O-])c1)C(=O)N1CCN(C/C=C/c2ccccc2)CC1 (configuration not stated),active: -103%
14,CC(C)OC(=O)Cn1cnc2ccc(Br)cc2c1=O,inconclusive: -42.2%
15,CCOC(=O)CN1C(c2ccc(O)cc2)Nc2ccc(Br)cc2C1c1ccccc1 (configuration not stated),active: -102%
16,O=C(NC(=S)NCCC1=CCCCC1)c1ccc(Br)o1,inactive: -7.4%
17,CCN(CC)c1nc(C#N)cc(-c2ccc(OC)cc2)n1,inactive: -9%
18,CCOC(=O)C1(CCc2ccccc2)CCN(Cc2cc(OC)c(OC)cc2OC)CC1,active: -53.8%
19,O=C(CCN1CCN(Cc2ccccc2)CC1)NNC(=O)c1ccc(Cl)c(Cl)c1,inconclusive: -37.5%
20,COc1ccc(CN(C)C(=O)c2ccc(OCC(=O)Nc3cccc(C(F)(F)F)c3)c(OC)c2)cc1,inconclusive: -45.3%
21,CCOC(=O)C1=C(Nc2ccccc2)CC(C)(O)C(C(=O)OCC)C1c1ccc(Cl)cc1 (configuration not stated),inconclusive: -48.9%
22,CC(C)Oc1ccc(CNC(=O)c2ccc3c(c2)N(C)CCS3)cc1,inconclusive: -32.6%
23,O=C(NCc1ccccc1F)c1cccc(S(=O)(=O)N2CCCCCC2)c1,inactive: -2.27%
24,O=c1c2ccccc2c(C=Nc2cccc(O)c2)c(O)n1-c1ccc2c(c1)OCO2,inconclusive: -39.1%
25,CC(C)(C)c1csc(N/N=C/c2ccc(O)cc2)n1,inconclusive: -33.8%
26,Cc1ccc(/C([O-])=C(/C(=S)NCc2ccc3c(c2)OCO3)[n+]2ccc(N(C)C)cc2)c(C)c1,active: -68.2%
